# Data: PMC10668032
# The other results are listed elsewhere or left out. At the low end of the ranking the order means little.
# Biological target: SIX1-Q177R homeodomain (UniProt Q15475)
# Experiment: universal protein binding microarray
# Details: Universal all-10-mer PBM (8x60K, AMADID 030236), 300 nM GST-tagged protein, Alexa Fluor 488 anti-GST; buffer, salt, pH and temperature not stated; high values mean tight binding; most listed sequences are background and not binding sites; double strand, one strand shown
row,Sequence,binding signal [E-score]
1,CCGCGACC,-0.0328
2,TACCCTAA,0.0683
3,ACTGGACT,-0.0611
4,CGACTCAG,-0.093
5,ACCCACCC,0.276
6,ATTTTCTC,-0.281
7,CCCATTAC,0.0463
8,CATATATA,-0.113
9,ATATGCGG,-0.0142
10,TCTCCAGA,-0.18
11,CAATATGA,-0.0552
12,ATTTCCAC,-0.119
13,GGAGGGGA,0.158
14,ACTTTTAA,-0.0597
15,CGCTAGTA,-0.0769
16,CTCAGAAC,-0.166
17,CCCCCAGA,0.0771
18,ACTTGAGA,-0.159
19,ACGTCCCT,0.14
20,AAATCCGT,-0.0909
21,CATCATCA,-0.179
22,ACCCTACA,0.297
23,GGGCCCTA,-0.201
24,ACGGTTCC,-0.206
25,AGACCCGG,0.167

row,Sequence,binding signal [E-score]
1,TCATCGGA,-0.0466
2,TACTGACA,0.22
3,AGAGTAAT,0.103
4,GACCCCTA,0.203
5,GCATTATA,-0.116
6,ATGTTCCG,-0.0878
7,ATCACAAG,-0.0887
8,AATGAGAA,-0.086
9,AGCTCCGG,-0.117
10,ACCATGCA,0.152
11,CGAGTGAC,0.0199
12,ATGGCTAG,-0.159
13,CTTATAAG,-0.102
14,CGGGTCAA,0.2
15,AGATGTCC,-0.233
16,ATTTTGAC,0.105
17,GCTTCGCC,-0.283
18,CAGCCCCA,-0.215
19,CACTACCG,0.102
20,TACAAGCA,-0.0717
21,ATTCAAGA,-0.0473
22,GGGGCCCC,-0.205
23,ATTGCGCG,-0.044
24,AGAACCCT,0.0646
25,GACTCCTC,0.166

row,Sequence,binding signal [E-score]
1,CCACTAGC,-0.116
2,ATAGCACA,0.0226
3,TCTCTGAA,-0.0891
4,AACCTCAT,-0.195
5,ACTAGCCC,0.113
6,CCCCGGTC,0.147
7,ATGCGCTG,-0.219
8,ACACGAGA,0.352
9,CCTCTCAG,-0.243
10,CCAGTGGG,0.224
11,GTCCACAA,-0.0944
12,CGTAGCTA,-0.173
13,ACTCCTCC,0.213
14,CAAATTAA,-0.0971
15,TAAAGAGA,-0.127
16,GGACTAAA,-0.13
17,CATACGGC,0.0144
18,GTAATTCA,0.112
19,CGACGCAC,0.105
20,GTGACGCA,-0.114
21,ACCGGACT,0.0232
22,AGGAAATA,-0.143
23,AGGAATGA,-0.116
24,CCACGCTC,-0.06
25,ACTTGTTA,-0.129

row,Sequence,binding signal [E-score]
1,AAGACAAT,-0.291
2,TATGTACA,0.13
3,ATTCCGGC,-0.166
4,ATCCTACC,0.102
5,GTAGACAC,0.409
6,GCTCGAAA,-0.364
7,GACAGTAC,0.0331
8,AGCCCACT,-0.0367
9,GCGGAACC,0.083
10,AGCGCTCG,-0.253
11,AAGACCCC,0.172
12,GCTATGCC,-0.328
13,AACTGATG,-0.147
14,GCTCGAAC,-0.0277
15,ACTACGCA,0.0386
16,CGTCCTAA,-0.139
17,CCCTGAGA,-0.0852
18,GGTAGCAC,-0.00599
19,AACGCGTC,-0.0221
20,AGCCCCTA,-0.0779
21,ACAAGAAG,0.0731
22,AGTACACA,0.253
23,CCCGCAGG,0.0307
24,ATCCCCAT,0.0626
25,AGTTGCAG,0.0643

row,Sequence,binding signal [E-score]
1,CGACCCGA,0.101
2,GTCTCCGA,-0.199
3,GTAAGAAC,-0.024
4,CCCCCGGC,0.21
5,CCGCATCG,0.0947
6,CTAGTGAA,-0.0296
7,CCCCGCAC,0.267
8,ACTAGGCT,-0.0202
9,CCGCATAA,0.0196
10,AGATTTAA,-0.172
11,AGCGAGGC,-0.252
12,CGCTGATC,-0.109
13,AGGTCCAT,-0.296
14,CATTGAGC,-0.129
15,AATCGAGC,-0.0449
16,AGATCTGG,-0.113
17,ACCGGCCG,0.13
18,AGGGAACG,-0.213
19,ATCGACAG,-0.305
20,GCCGCAGA,-0.266
21,ACTGCGTG,0.29
22,AAGGGAGA,0.0086
23,CGTCTGAC,-0.0331
24,CCATCGGA,0.0432
25,AGTTTAAG,-0.0709

row,Sequence,binding signal [E-score]
1,GGCGACTA,0.086
2,AATCCGGT,0.0398
3,CATTTGCA,-0.124
4,CAAGAGCA,0.0649
5,GCTCCCAC,-0.114
6,AAGAAATT,-0.283
7,AAAGAGCC,-0.124
8,GCGTAGAC,-0.158
9,AAACTGTT,-0.245
10,AAACGGGG,0.0429
11,AAACGCAT,-0.0952
12,ACCTTTCC,-0.00107
13,GATGCTGA,-0.198
14,CCACATCC,-0.0477
15,CTCCTAAA,0.0219
16,CCGATTCA,-0.118
17,GAATCGCC,-0.216
18,ACCGGTCA,0.105
19,CTGATTCC,-0.118
20,ACTTTGAC,-0.0213
21,AACGTTAC,-0.156
22,CAGGAATA,-0.0771
23,CGGGGGTA,0.315
24,CCACTATA,0.129
25,CACTGGAA,0.152

row,Sequence,binding signal [E-score]
1,ACTACTGG,0.0745
2,TGAGAGCA,-0.279
3,ACGAGACA,0.0301
4,ATATTATA,-0.12
5,ATATAGCG,-0.173
6,GCTGGCGA,-0.064
7,ACGTCAGA,0.0769
8,GTCGACTA,0.0268
9,CCTAATCC,-0.0723
10,GACAAGTC,-0.332
11,GAGGAGCC,-0.207
12,ACGCCGCC,0.153
13,GAAACGAA,-0.0693
14,CAGGTAGC,0.0255
15,AGGAGTTA,0.00882
16,AGCATCGC,-0.296
17,AGCCTCAT,-0.0794
18,CAAACGTA,-0.0347
19,ACTCAAAG,-0.0176
20,GCCTATCC,-0.24
21,GAAGTTAA,0.0343
22,CACAACGG,0.0935
23,ATAGTCCC,-0.183
24,GATGTCAA,-0.133
25,ATTGGCTG,-0.228

row,Sequence,binding signal [E-score]
1,ATAACCGC,-0.0892
2,GAGTTGCA,0.0815
3,CGCGACCA,-0.17
4,CGTTACAC,0.424
5,AACTCTAA,-0.0839
6,ACTCAATG,0.059
7,ACTCTATA,-0.0385
8,GCAATCGC,-0.101
9,GTCAAGTA,0.0362
10,CAATCAAA,-0.15
11,AGGGCCGG,-0.136
12,CGGAGCGC,-0.0175
13,GTCTTAAA,-0.04
14,ACAATACA,0.194
15,AAAAATGG,-0.185
16,GAAACTCA,-0.282
17,CGATTACG,0.121
18,TCATATGA,0.073
19,CAACGGTC,-0.177
20,GGAGGACC,-0.198
21,AAAGTCTC,-0.185
22,CCCTCTTC,-0.0766
23,GATCTAAA,-0.209
24,CTCGTATC,0.0229
25,ATTTCTCG,-0.0917

row,Sequence,binding signal [E-score]
1,AAGAGTGA,0.0402
2,ATCGTACC,-0.0381
3,AAATTAGG,-0.168
4,AACGTAAC,0.0085
5,CACGAGGG,0.189
6,GGAAGGCA,-0.138
7,GGAATGTA,-0.0614
8,CGGGCGAA,-0.103
9,CACTGCGC,0.0832
10,CATCGGCG,0.00039
11,CAACAGTA,-0.23
12,AACGTGGG,-0.18
13,ACATCTCT,0.153
14,CCGGGCCC,-0.0568
15,GATCGGGA,-0.0452
16,ATTTTGTG,0.0615
17,AATTCCCT,-0.124
18,ATCAGGTA,0.0475
19,CAGGAACC,-0.117
20,GGTCGGCA,0.0392
21,AATGAATG,-0.198
22,ATACCAAA,0.114
23,TACGTGCA,0.032
24,TGCTAACA,0.0666
25,CTTCGCCA,-0.184

row,Sequence,binding signal [E-score]
1,ATAACGTG,0.139
2,ATTATATG,-0.0371
3,AACGAACA,0.208
4,AGTTGTTG,-0.263
5,ATGTGCTG,-0.156
6,CCCCGTGA,0.0655
7,GGGACCAC,0.041
8,ACGTATGA,-0.135
9,CAAAGATC,-0.121
10,AATGGAGA,0.00277
11,TAGGCGAA,-0.0539
12,CCCACACA,0.134
13,CTAAGGAA,-0.181
14,GTCCTTCA,0.0531
15,ATAAGCAA,-0.0358
16,ACCTCGCG,0.00558
17,CACCCTTC,0.31
18,TAAACCCA,0.0749
19,ACCGTGCT,0.0925
20,AGGCAGAA,-0.152
21,AATCCTAT,-0.22
22,CTGATTCA,-0.0785
23,CGCGGGCC,-0.061
24,TCCTGCCA,-0.0205
25,ACTGCCTA,-0.122

row,Sequence,binding signal [E-score]
1,GTTTTCCA,-0.0214
2,AGGCAACG,-0.0625
3,CCGCAAGC,-0.186
4,CCATCTGA,0.103
5,CACCGCAA,0.284
6,GAACCACA,-0.0335
7,ACAGAGCC,-0.312
8,GGTGTGAC,0.435
9,GAGGTGTA,0.466
10,GCGCGGCC,-0.324
11,GTCATTTA,-0.048
12,CCTTTACG,0.0293
13,CGTAATAA,-0.114
14,GAATAGAC,-0.192
15,AGCCGCCG,-0.238
16,GGACCACC,-0.06
17,GACGCGCC,0.0406
18,CATCGATA,-0.052
19,TCGGCCAA,-0.256
20,ACGAGGCT,0.0205
21,CCGCGTTC,0.0678
22,GTTTAGTA,0.0263
23,GAGTGAGC,0.0692
24,CCAGAACA,0.261
25,GCCCAGCC,-0.0771

row,Sequence,binding signal [E-score]
1,CGTCCGGC,0.0615
2,AAGCAATG,0.135
3,AAATATGG,-0.0799
4,GATTGTTA,0.107
5,AATACTTC,-0.198
6,GCTGGGAA,-0.12
7,AGAGGGCC,-0.287
8,CAATGAAA,-0.246
9,CTAATCGC,-0.106
10,CCTAGGAG,0.123
11,AAGCCGTG,0.0483
12,ATCATTCG,-0.171
13,CCATTCAA,0.112
14,ACAATACG,-0.102
15,CTCTGGAC,-0.158
16,ACGTACTA,-0.0389
17,GCTCAGCC,-0.149
18,AAAAAAAG,-0.0847
19,AATATGAC,0.12
20,AGACAAAA,-0.216
21,TCCCAGAA,-0.0942
22,ACATAGCC,-0.0606
23,CACCCAAA,0.255
24,CCTCTACG,0.0541
25,GCGCATAC,0.00625

row,Sequence,binding signal [E-score]
1,CAAATACC,-0.157
2,ATTATAAG,-0.152
3,CAGGTTAA,0.0854
4,AAGTCCAT,0.0108
5,CCCAACTC,0.0389
6,TACGGCCA,-0.247
7,ACAGACAG,-0.087
8,CAAGCGGA,0.00792
9,AAGCGCGG,-0.000695
10,AATGTTTC,-0.286
11,GAATCTGA,0.149
12,CCCGTTAC,0.024
13,AGCTCCAA,-0.196
14,AGGCCTCG,-0.227
15,GTCGTAGA,-0.115
16,GCTTCTCC,-0.206
17,GGTATCAC,0.399
18,CCGTGGCC,-0.0282
19,CTATATAA,-0.151
20,ATGAATGG,-0.241
21,ATGATGTG,-0.25
22,GAACCATC,-0.254
23,TCTGAAGA,-0.119
24,CGTTTCCC,-0.171
25,CCCATCTC,0.0316

row,Sequence,binding signal [E-score]
1,AGTTCGGC,-0.109
2,TGGCCGAA,-0.0823
3,CAACACGA,0.328
4,CCTTGGTA,-0.0495
5,GGTCGAAC,0.228
6,AGAGGCCC,-0.229
7,CTCCGCGC,-0.0047
8,ATGGTGGA,0.0419
9,CAATAGTC,-0.184
10,GCCCGTTA,-0.0643
11,CACGGTTC,0.169
12,ACTTGAGC,-0.198
13,CCTCGTAG,-0.00971
14,CCTTCGCC,0.0126
15,CAATGTCG,-0.053
16,CACCTCAC,0.354
17,ACCGTGAG,0.0809
18,CGGTGAGC,-0.016
19,CCTTTAGA,0.0195
